# In the supplement of paper PMC10037445:
# Several values for one entry are separate records, joined by “and”; a condition that tells them apart may be missing. Equal values may be shown once. In all, about 2,900 compounds were measured (“IRF Lucia reporter activity, fold change vs agonist alone”: median about 0.9, highest 2% from about 2.8 on). This is one part of the list.
# What was measured:
# [1] = test system: RAW-Dual; experiment: IRF Lucia reporter activity, fold change vs agonist alone; cytotoxicity flag (confluency mask): not cytotoxic; higher = enhanced IRF activity
# Summary of the method: (§1)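 After 50 nL of library stock was delivered by pin tool to RAW-Dual macrophages (50,000 cells/well, DMEM, 384-well plates), a PRR agonist was added 1 h later and the plates were kept at 37 °C, 5% CO2. Twenty hours later, IRF was read from supernatant by QuantiLuc luminescence and NF-κB by QuantiBlue absorbance at 620 nm. Reporter activity is stated as fold change over agonist-alone wells. Wells with IncuCyte confluency under 70% of agonist controls in both mask sets were counted as cytotoxic.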
# [2] = test system: RAW-Dual; experiment: IRF Lucia reporter activity, fold change vs agonist alone; higher = enhanced IRF activity; conditions: library stock concentration (final ~1000-fold dilution): 10 mM, agonist: MPLA (TLR4) […]
# Summary of the method: as §1
# [3] = test system: RAW-Dual; experiment: IRF Lucia reporter activity, fold change vs agonist alone; cytotoxicity flag (confluency mask): cytotoxic (confluency <70% of control); higher = enhanced IRF activity
# Summary of the method: as §1
# [4] = agonist: 3'3'-cGAMP (STING) 10 ug/mL
# [5] = cytotoxicity flag (confluency mask): not cytotoxic
# [6] = cytotoxicity flag (confluency mask): cytotoxic (confluency <70% of control)
smiles,measurement,setting,value
O=C(O)c1cc(O)c2c(c1)C(C1c3cc(C(=O)O)cc(O)c3C(=O)c3c(OC4OC(CO)C(O)C(O)C4O)cccc31)c1cccc(OC3OC(CO)C(O)C(O)C3O)c1C2=O (stereo unspecified) (library stock concentration (final ~1000-fold dilution): 2 mM),IRF Lucia reporter activity,[1]; [4],0.773
same,IRF Lucia reporter activity,[1]; agonist: LPS (TLR4) 0.1 ug/mL,0.988
COc1ccc2cc(CCC(C)=O)ccc2c1,IRF Lucia reporter activity,[2]; [5],1.05
COc1ccc2cc(CCC(C)=O)ccc2c1 (library stock concentration (final ~1000-fold dilution): 10 mM),IRF Lucia reporter activity,[1]; [4],0.841
same,IRF Lucia reporter activity,[1]; agonist: LPS (TLR4) 0.1 ug/mL,1.11
CCn1cc(C(=O)O)c(=O)c2ccc(C)nc21,IRF Lucia reporter activity,[2]; [5],1.1
CCn1cc(C(=O)O)c(=O)c2ccc(C)nc21 (library stock concentration (final ~1000-fold dilution): 10 mM),IRF Lucia reporter activity,[1]; [4],1.05
same,IRF Lucia reporter activity,[1]; agonist: LPS (TLR4) 0.1 ug/mL,1.07
CN(C)c1ccc(C(=O)NCCCCCCC(=O)NO)cc1,IRF Lucia reporter activity,[2]; [6],0.439
CN(C)c1ccc(C(=O)NCCCCCCC(=O)NO)cc1 (library stock concentration (final ~1000-fold dilution): 10 mM),IRF Lucia reporter activity,[3]; [4],0.14
same,IRF Lucia reporter activity,[3]; agonist: LPS (TLR4) 0.1 ug/mL,0.353
CC(=O)OC12COC1CC(O)C1(C)C(=O)C(O)C3=C(C)C(OC(=O)C(O)C(NC(=O)OC(C)(C)C)c4ccccc4)CC(O)(C(OC(=O)c4ccccc4)C21)C3(C)C (stereo unspecified) (library stock concentration (final ~1000-fold dilution): 10 mM),IRF Lucia reporter activity,[1]; [4],0.737
same,IRF Lucia reporter activity,[1]; agonist: LPS (TLR4) 0.1 ug/mL,0.79
CC(=O)OC12COC1CC(O)C1(C)C(=O)C(O)C3=C(C)C(OC(=O)C(O)C(NC(=O)OC(C)(C)C)c4ccccc4)CC(O)(C(OC(=O)c4ccccc4)C21)C3(C)C (stereo unspecified),IRF Lucia reporter activity,[2]; [5],0.856
Brc1ccc(CCCCn2ccnc2)cc1 (library stock concentration (final ~1000-fold dilution): 10 mM),IRF Lucia reporter activity,[1]; [4],0.855 and 0.877
same,IRF Lucia reporter activity,[1]; agonist: LPS (TLR4) 0.1 ug/mL,1.03 and 0.678
COc1ccc(C2OCC3C(c4cc(OC)c(OC)c(OC)c4)OCC23)cc1OC (stereo unspecified) (library stock concentration (final ~1000-fold dilution): 10 mM),IRF Lucia reporter activity,[1]; [4],1.1
same,IRF Lucia reporter activity,[1]; agonist: LPS (TLR4) 0.1 ug/mL,0.811
COC1C(=O)C2(C)C(OC)CC3OCC3(OC(C)=O)C2C(OC(=O)c2ccccc2)C2(O)CC(OC(=O)C(O)C(NC(=O)OC(C)(C)C)c3ccccc3)C(C)=C1C2(C)C (stereo unspecified) (library stock concentration (final ~1000-fold dilution): 10 mM),IRF Lucia reporter activity,[1]; [4],0.47
same,IRF Lucia reporter activity,[1]; agonist: LPS (TLR4) 0.1 ug/mL,0.528
COC1C(=O)C2(C)C(OC)CC3OCC3(OC(C)=O)C2C(OC(=O)c2ccccc2)C2(O)CC(OC(=O)C(O)C(NC(=O)OC(C)(C)C)c3ccccc3)C(C)=C1C2(C)C (stereo unspecified),IRF Lucia reporter activity,[2]; [5],0.471
O=C(CCCN1CC=C(n2c(=O)[nH]c3ccccc32)CC1)c1ccc(F)cc1,IRF Lucia reporter activity,[2]; [5],1.12
O=C(CCCN1CC=C(n2c(=O)[nH]c3ccccc32)CC1)c1ccc(F)cc1 (library stock concentration (final ~1000-fold dilution): 10 mM),IRF Lucia reporter activity,[1]; [4],0.988
same,IRF Lucia reporter activity,[1]; agonist: LPS (TLR4) 0.1 ug/mL,1.44
Cc1ccc(NC(=O)c2ccc(CN3CCN(C)CC3)cc2)cc1Nc1nc(-c2cccnc2)cs1,IRF Lucia reporter activity,[2]; [6],1.42
Cc1ccc(NC(=O)c2ccc(CN3CCN(C)CC3)cc2)cc1Nc1nc(-c2cccnc2)cs1 (library stock concentration (final ~1000-fold dilution): 10 mM),IRF Lucia reporter activity,[3]; [4],0.928
same,IRF Lucia reporter activity,[3]; agonist: LPS (TLR4) 0.1 ug/mL,0.441
CN(C)Cc1cccc(N/C(=C2\C(=O)Nc3cc(C(=O)N(C)C)ccc32)c2ccccc2)c1 (library stock concentration (final ~1000-fold dilution): 10 mM),IRF Lucia reporter activity,[1]; [4],0.681
same,IRF Lucia reporter activity,[1]; agonist: LPS (TLR4) 0.1 ug/mL,0.823
CN(C)Cc1cccc(N/C(=C2\C(=O)Nc3cc(C(=O)N(C)C)ccc32)c2ccccc2)c1,IRF Lucia reporter activity,[2]; [5],0.786
O=C(Nc1cc(C(F)(F)F)ccc1N1CCCCC1)c1ccncc1 (library stock concentration (final ~1000-fold dilution): 10 mM),IRF Lucia reporter activity,[1]; [4],1.05
same,IRF Lucia reporter activity,[1]; agonist: LPS (TLR4) 0.1 ug/mL,0.874
O=C(Nc1cc(C(F)(F)F)ccc1N1CCCCC1)c1ccncc1,IRF Lucia reporter activity,[2]; [5],1.18
COc1cc2nc(N3CCN(C(=O)c4ccco4)CC3)nc(N)c2cc1OC,IRF Lucia reporter activity,[2]; [5],1.19
COc1cc2nc(N3CCN(C(=O)c4ccco4)CC3)nc(N)c2cc1OC (library stock concentration (final ~1000-fold dilution): 10 mM),IRF Lucia reporter activity,[1]; [4],0.816
same,IRF Lucia reporter activity,[1]; agonist: LPS (TLR4) 0.1 ug/mL,0.869
O=c1cc(-c2ccccc2)oc2cc(OC3OC(CO)C(O)C(O)C3O)c(O)c(O)c12 (stereo unspecified) (library stock concentration (final ~1000-fold dilution): 10 mM),IRF Lucia reporter activity,[1]; [4],0.862
same,IRF Lucia reporter activity,[1]; agonist: LPS (TLR4) 0.1 ug/mL,0.849
CN(C)CCSSCCNC(=O)C1CCN(C(=O)CSc2ccc(Cl)cc2)CC1.O=C(O)C(F)(F)F (library stock concentration (final ~1000-fold dilution): 10 mM),IRF Lucia reporter activity,[1]; [4],0.396
same,IRF Lucia reporter activity,[1]; agonist: LPS (TLR4) 0.1 ug/mL,0.778
CN(C)CCSSCCNC(=O)C1CCN(C(=O)CSc2ccc(Cl)cc2)CC1.O=C(O)C(F)(F)F,IRF Lucia reporter activity,[2]; [5],0.751
